Hit rate of the full screen: of about 330,000 compounds, about 4,200 (1.3%) were called active. This list was built around the results that the source calls inconclusive (neither active nor inactive); the mix of calls is not that of the screen. The call rests on the fitted dose curve; in most records, active means well fitted activation curve with a large enough effect; inconclusive means small, poorly fitted or top-dose-only effect; inactive means no such curve, though single readings can be large or run the other way. Potencies beside an inconclusive call are fits to weak or partial responses and may not hold up.
Test: qHTS screen for small molecules that induce genotoxicity in human embryonic kidney (HEK293T) cells expressing luciferase-tagged ELG1; further: nearly all actives have a fitted effect of over 60% in size
Details: HEK293T ELG1-luciferase reporter, luminescence, 16 h; series mostly up to 46 µM
Excerpt: NIH Molecular Libraries Probe Production Network [MLPCN] NIH Chemical Genomics Center [NCGC] MLPCN Grant: 1 R03 MH092164-01 Assay Provider: Kyungjae Myung, NHGRI, NIH Keywords: MLPCN, qHTS, NCGC, genotoxicity, cancer Assay Overview: Cancer cells divide rapidly compared to normal cells in the body. During cell division, cancer cells need to duplicate their genome by DNA replication. The failure of genome duplication leads to cancer cells' death. Therefore, inhibitors of DNA replication could specifically kill cancer cells. Based on this concept, many chemotherapeutic agents were developed and have been used to treat cancer patients. However, there are a limited number of agents available in the clinical setting, and some of those that do exist have low efficacy and severe side effects. Therefore, if we can find the compounds that effectively block DNA replication either by directly damaging DNA or by inhibiting other cellular mechanisms, the options for cancer treatment will be broadened. With this in mind, we developed a quantitative high-throughput ELG1-luciferase reporter gene assay. Since the level of human ELG1 protein is enhanced in response to genetic stresses, increases in luciferase activity can be used to identify compounds that cause genetic stress.
Assay Protocol Summary: For genotoxicity screening, 2,000 cells in 5 uL/well were dispensed into white, solid-bottom 1536-well plates using a solenoid-based dispenser. Following transfer of 23 nL compound or DMSO vehicle by a pin tool, the plates were incubated 16 hr at 37 °C and 5% CO2. 5 ul ONE-Glo (Promega) was then added to each plate and following a 30 min incubation at room temperature, luciferase activity was quantified on a ViewLux CCD-based plate reader.
Potency means the concentration at half of the fitted maximal effect; tags describe the fitted curve by direction and shape.

| SMILES | Potency |
| --- | --- |
| O=C(OCc1ccccc1F)c1ccc2c(c1)-c1ccccc1C2=O | inconclusive: 9.2 µM [activator, partial curve, poor fit] |
| Cc1csc(NC(=O)Cc2c[nH]c3ccccc23)n1 | inconclusive: 23.1 µM [activator, partial curve, poor fit] |
| O=C(NNc1nc(N2CCOCC2)nc(N2CCOCC2)n1)Nc1ccc(Cl)cc1 | inconclusive: 23.1 µM [activator, single point] |
| Cc1ccc(-c2noc(CN3CCOCC3)n2)cc1 | inconclusive: 10.3 µM [activator, partial curve, poor fit] |
| Cc1ccc(NC(=O)c2ccc(S(=O)(=O)N3CCC(C)CC3)cc2)nc1 | active: 18.3 µM |
| O=C(c1cc(COc2cccc(C(F)(F)F)c2)on1)N1C[C@@H]2CCC[C@H]1C2 | inconclusive: 8.2 µM [activator, partial curve, poor fit] |
| C/C(=N/NC(=O)c1cc2ccccc2cc1O)C1C(=O)c2ccccc2C1=O | inconclusive: 14.1 µM [activator, partial curve, poor fit] |
| COc1cc2c(cc1OC)CN(c1ccc(C(F)(F)F)cn1)CC2 | inconclusive: 23.1 µM [activator, partial curve, poor fit] |
| COc1ccc(C(=O)Nn2c(SCC(=O)NCc3ccco3)nc3ccccc3c2=O)cc1 | inconclusive: 0.0291 µM [activator, full curve] |
| COc1ccc(/C=N/Nc2cc(OC)ncn2)cc1 | active: 1.84 µM |
| CN(C)S(=O)(=O)c1cccc(COC(=O)c2ccc(Cl)cc2O)c1 | inactive |
| COc1ccc(Nc2nc(N)nc(CSCCO)n2)cc1 | inconclusive: 20.6 µM [activator, partial curve] |
| CCOc1ccc(-c2cn(-c3ccc(OC)cc3)c(SC)n2)cc1 | inconclusive: 9.2 µM [activator, partial curve] |
| CC(C)(C)c1csc(N/N=C/c2cccnc2)n1 | inconclusive: 10.3 µM [activator, partial curve, poor fit] |
| COc1ccc(C(=O)NCC(=O)NCc2ccncc2)cc1 | inactive |
| CC1CCCN(C(=O)Nc2ccc(Br)cc2Cl)C1 (stereo not given) | inconclusive: 20.6 µM [activator, single point] |
| O=c1c(Cl)c(NCCCO)cnn1-c1nc2ccccc2[nH]1 | active: 16.4 µM |
| COc1ccc(C2=NN(C(=O)CN3CCOCC3)C(c3nc4ccccc4[nH]3)C2)cc1 (stereo not given) | inconclusive: 23.1 µM [activator, partial curve, poor fit] |
| Cc1ccccc1-n1nc(C(=O)O)c(C)c(C#N)c1=O | inactive |
| CCCS(=O)(=O)NCc1cn2c(C)csc2n1 | active: 11.6 µM |
| CCn1cc(Cl)c(C(=O)Nc2ccc3c(c2)OCCO3)n1 | inconclusive: 3.26 µM [activator, full curve, poor fit] |
| COc1ccc(NC(=O)Nc2cccc3c2O[C@H](CN(C)C(=O)Nc2ccc(OC)cc2)[C@@H](C)CN([C@H](C)CO)C3=O)cc1 | inactive |
| NC(=O)/C(=C/c1ccco1)C(N)=S | inactive |
| CC(C)(C)N=C1NN=C(c2ccc(Cl)cc2)CS1 | inconclusive: 2.59 µM [activator, partial curve] |
| Cc1ccc(C(=O)COC(=O)c2ccc(Cl)c(N)c2)s1 | inactive |

| SMILES | Potency |
| --- | --- |
| COc1ccc(OC)c(NC(=O)c2cc(-c3cc(C)ccc3O)n[nH]2)c1 | inconclusive: 18.3 µM [activator, partial curve, poor fit] |
| O=C(CCc1nnc(CCCc2ccccc2)o1)NC(C1CC1)C1CC1 | active: 20.6 µM |
| COc1ccc(OC)c2sc(NC(=O)c3cccc(N4C(=O)CCC4=O)c3)nc12 | inactive |
| Cc1ccc(Cl)c2sc(NC(=O)C3=COCCO3)nc12 | inconclusive: 18.3 µM [activator, partial curve, poor fit] |
| O=C(Nc1nc(SCc2ccc(F)cc2)ns1)c1ccco1 | inactive |
| CCC(C)(C)NC(=O)c1ccc(S(=O)(=O)N2CCCCCC2)cc1 | inactive |
| CC(C)c1cc(C(=O)N/N=C/c2ccoc2)cs1 | inconclusive: 16.4 µM [activator, partial curve] |
| COCCCn1c(=O)c2ccccc2n2c(=S)[nH]nc12 | inactive |
| CCOC(=O)c1[nH]c(C)c(/C(O)=C2\C(=O)C(=O)N(CCCN3CCOCC3)C2c2cccs2)c1C (stereo not given) | inactive |
| CN(C)/C=C/C(=C\C(=O)C(F)(F)F)Nc1ccc(C(F)(F)F)cc1 | inactive |
| CCC(C)/C(C)=N/NC(=O)c1ccc(CSc2nc3ccccc3s2)cc1 (stereo not given) | inconclusive: 32.6 µM [activator, partial curve, poor fit] |
| O=C1N=C(c2ccccc2)S/C1=C\c1cccs1 | inconclusive: 11.6 µM [activator, partial curve] |
| CNS(=O)(=O)c1cccc(C(=O)OCC(=O)Nc2ccc(-c3nc4ccc(C)cc4s3)cc2)c1 | active: 0.73 µM |
| Cc1nc(Cl)sc1C(=O)Nc1ccc(C(C)(C)C)cc1 | inconclusive: 20.6 µM [activator, single point] |
| O=C(CSc1ccccc1)N/N=C/c1ccccc1O | inconclusive: 29.1 µM [activator, single point] |
| Cc1cc(C)n2nc(C(=O)Nc3ccc4c(c3)CCC4)nc2n1 | inconclusive: 15.8 µM [activator, partial curve, poor fit] |
| CC1CCCN(C(=O)CN2C(=O)c3ccccc3S2(=O)=O)C1 (stereo not given) | inconclusive: 10.3 µM [activator, partial curve, poor fit] |
| Cc1cc(CNC(=O)c2cc(COc3ccc(F)c(F)c3)on2)nn1C | inconclusive: 3.26 µM [activator, partial curve] |
| Cc1cccn2c(=O)c(C=O)c(Cl)nc12 | inconclusive: 29.1 µM [activator, partial curve, poor fit] |
| Cc1cc(N2CCOCC2)nc2ccccc12 | inactive |
| Cc1ccccc1N1C(=O)CN(Cc2sccc2C)C1=S | inactive |
| CCCNC(=O)c1n[nH]c(=O)c2ccccc12 | inactive |
| CCS(=O)(=O)N1CCN(c2nc(-c3ccccc3)cs2)CC1 | inconclusive: 16.4 µM [activator, partial curve, poor fit] |
| Cc1nc(N2CCOCC2)[nH]c(=O)c1C | inactive |
| Cc1noc2ncnc(Oc3cc(Cl)ccc3Cl)c12 | inconclusive: 23.1 µM [activator, partial curve, poor fit] |

| SMILES | Potency |
| --- | --- |
| CC(=O)N(C)c1nc(-c2ccc(Cl)cc2)cs1 | inactive |
| Cc1ccc(NC(=O)COc2ccc(N(C)S(=O)(=O)c3ccc(F)cc3)cc2)cc1 | inactive |
| O=C(Nc1nnc(-c2ccco2)s1)c1ccccc1 | active: 1.16 µM |
| O=C(N/N=C(\c1ccccc1)c1cccnc1)c1cccc(F)c1 | active: 16.4 µM |
| CC(=O)c1sc(NC(=O)c2cc(S(=O)(=O)N3CCOCC3)ccc2F)nc1C | inactive |
| COc1ccc(/C=C\C(=O)Oc2cccc(/C=N/NC(=O)Cc3ccc(OC)c(OC)c3)c2)cc1 | inconclusive: 23.1 µM [activator, single point] |
| O=S1(=O)N=C(N2CCOCC2)c2ccccc21 | inactive |
| O=C(N/N=C/c1ccc2c(c1)OCO2)C1CC1 | inconclusive: 29.1 µM [activator, single point] |
| O=S(=O)(Nc1ccc(-c2nc3cccnc3s2)cc1)c1ccccc1F | inconclusive: 18.3 µM [activator, single point] |
| COc1ccc(O)c(CN2CCN(CCCc3ccccc3)C(CCO)C2)c1 (stereo not given) | inactive |
| CC(C)(C)c1ccc(OCCn2ccccc2=O)cc1 | active: 4.61 µM |
| Cc1cccc(NC(=O)Nc2ccc3c(c2)N(C)C(=O)CS3)n1 | inconclusive: 13 µM [activator, partial curve] |
| COc1ccc2nc(-c3ccc(N)cc3)[nH]c2c1 | inconclusive: 20.6 µM [activator, partial curve] |
| Cc1ccc(NC(=O)CN(C)C(=O)C(C)OC(=O)CNC(=O)c2ccc(Cl)c([N+](=O)[O-])c2)cc1 (stereo not given) | inactive |
| Cc1ccccc1Nc1nc(N)nc(-c2oc3ccccc3c2C)n1 | inconclusive: 18.3 µM [activator, partial curve, poor fit] |
| Cc1ccc(-n2c(C)cc(C(=O)OCC(=O)N(C)C3CCS(=O)(=O)C3)c2C)cc1 (stereo not given) | inconclusive: 25.9 µM [activator, partial curve, poor fit] |
| COC(=O)c1ccc(C(=O)NC(=S)Nc2nc3c(s2)CCCC3)cc1 | inactive |
| O=C(NCCc1c[nH]c2ccccc12)c1cc2ccccc2oc1=O | inconclusive: 20.6 µM [activator, single point] |
| Nc1cccc(-c2cnc3ccccc3n2)c1 | active: 9.2 µM |
| O=C(c1ccccc1)c1nc[nH]c1C(=O)Nc1ccccn1 | inconclusive: 20.6 µM [activator, single point] |
| O=C1CN(C(=O)COC(=O)c2ccc[n+]([O-])c2)c2ccccc2N1 | inactive |
| Cc1ccccc1OCc1nc(-c2ccccc2)no1 | inconclusive: 3.66 µM [activator, partial curve] |
| OCC1CCCN1C(=S)Nc1ccccc1 (stereo not given) | inconclusive: 6.51 µM [activator, partial curve, poor fit] |
| Cn1c(SCC(=O)c2ccc(F)cc2)ncc(C(=O)Nc2ccccc2)c1=O | inconclusive: 29.1 µM [activator, single point] |
| COc1ccc(C(=O)Nc2cc3c4c(c2)C(C)C(=O)N4CCC3)cc1OC (stereo not given) | inconclusive: 23.1 µM [activator, partial curve, poor fit] |

From PubChem BioAssay AID504466 (National Center for Advancing Translational Sciences (NCATS), 2011)
